The whole screen tested about 50,000 compounds, of which about 800 (1.6%) showed an effect of 50% or more. This is one part of the list.
These compounds were tested against Bcl-2-like protein 10 (Homo sapiens) (UniProt Q9HD36) (assay: TR3 peptide-Bcl-B binding displacers, biochemical primary FP assay, phenotype converters (AID 1240;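 further: 0% = Bcl-B with tracer peptide and DMSO and 100% = tracer peptide lacking Bcl-B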)). Conditions: GST-Bcl-B / FITC-TR3 peptide fluorescence polarization; stronger effect = higher value; compound at 3.75 mg/L.
Sequence of UniProt Q9HD36 (Q9HD36 whole entry, looked up): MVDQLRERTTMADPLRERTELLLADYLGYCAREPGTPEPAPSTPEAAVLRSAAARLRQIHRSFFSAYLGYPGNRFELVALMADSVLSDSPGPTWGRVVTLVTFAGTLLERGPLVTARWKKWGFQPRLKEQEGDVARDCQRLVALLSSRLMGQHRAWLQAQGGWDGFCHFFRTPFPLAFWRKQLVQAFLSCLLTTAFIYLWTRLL

**Q.** For Cc1cccc(OCC(=O)Nc2ccc(I)cc2)c1C, which displacement is on record?
**A.** -2.6%

**Q.** With CCCCOc1ccc(C(CC(=O)O)CC(=O)O)cc1 as the compound, how does the displacement read?
**A.** -7.2%

**Q.** How did the displacement turn out when CCOC(=O)c1ccccc1NC(=O)c1cc(-c2ccccc2C)nc2ccccc12 was run?
**A.** -5.1%

**Q.** Which displacement does the source give for O=S(=O)(NCc1cccnc1)c1ccc(Cl)cc1 here?
**A.** -12%

**Q.** O=C(Nc1ccc(Oc2ccccc2)cc1)c1cc(S(=O)(=O)N2CCOCC2)ccc1Cl was tested. Which displacement did it give?
**A.** -17.1%

**Q.** With O=C(Nc1ccc(I)cc1Cl)c1ccc(OCc2ccccc2)cc1 as the compound, how does the displacement read?
**A.** 6.5%

**Q.** How did the displacement turn out when CCOc1ccc2nc(SCC(=O)Nc3ncccn3)sc2c1 was run?
**A.** 10%

**Q.** COc1ccc(OCCCCNC(C)(C)C)cc1 was tested. Which displacement did it give?
**A.** 8.2%

**Q.** O=S(=O)(c1ccc2c(c1)OCCO2)N1CCOCC1 was tested. Which displacement did it give?
**A.** -3.4%

**Q.** O=C(NCc1cccs1)c1nn2c(c1Cl)NC(c1ccco1)CC2C(F)(F)F (configuration not stated) was tested. Which displacement did it give?
**A.** 1.6%

**Q.** With Cc1cc(C)cc(NC(=O)CN(Cc2ccccc2)S(=O)(=O)c2ccccc2)c1 as the compound, how does the displacement read?
**A.** 9.1%

**Q.** How did the displacement turn out when Clc1ccc(/C=N/Nc2nccs2)c(Cl)c1 was run?
**A.** -7.1%

**Q.** Which displacement does the source give for Cc1ccc(CC2C(=O)N(c3ccc(C)cc3)C(=O)C2C)cc1 (configuration not stated) here?
**A.** 2.2%

**Q.** For Fc1cccc(Nc2nc(-c3ccncc3)nc3ccccc23)c1, which displacement is on record?
**A.** 0.9%

**Q.** How did the displacement turn out when Cc1cc(C)c(C(=O)/C(=C/c2ccccc2Cl)c2ccccc2)c(=O)[nH]1 was run?
**A.** 11.3%

**Q.** CCOc1cc(C(=O)Nc2sc3c(c2C(=O)OC)CCCCC3)cc(OCC)c1OCC was tested. Which displacement did it give?
**A.** -14.2%

**Q.** CCOC(=O)c1sc(NC(=O)C2CC=CCC2C(=O)O)c(C(N)=O)c1C (configuration not stated) was tested. Which displacement did it give?
**A.** 9.4%

**Q.** How did the displacement turn out when CCOc1ccc2nc(NC(=O)c3ccccc3O)sc2c1 was run?
**A.** -1%

**Q.** For COc1ccc(C2C(=O)c3ccccc3C2=Nc2cccc(C(C)=O)c2)cc1 (configuration not stated), which displacement is on record?
**A.** 2.8%

**Q.** How did the displacement turn out when COC(=O)C1=C(C)NC2=C(C(=O)CCC2)C1c1cc2c(cc1Br)OCO2 (configuration not stated) was run?
**A.** 2.6%

**Q.** CC1(C)CC(NC(=O)c2ccc(Cl)cc2)CC(C)(C)N1 was tested. Which displacement did it give?
**A.** -14.7%

**Q.** Which displacement does the source give for O=C(Nc1ccccc1C(F)(F)F)c1nn2c(c1Cl)NC(c1ccccc1)CC2C(F)(F)F (configuration not stated) here?
**A.** 12.4%

**Q.** With CC(=O)Nc1nc2cc3sc(NC(C)=O)nc3cc2s1 as the compound, how does the displacement read?
**A.** 2.5%

**Q.** How did the displacement turn out when CCN(CC)c1ccc(NC(=O)c2ccncc2)cc1 was run?
**A.** -0.4%

**Q.** C=CCc1cccc(/C=N/NC(=O)c2cc(C34CC5CC(CC(C5)C3)C4)[nH]n2)c1O was tested. Which displacement did it give?
**A.** -2.6%

**Q.** How did the displacement turn out when O=C(NCc1ccc(Cl)cc1)c1cnn2c(C(F)(F)F)cc(-c3ccco3)nc12 was run?
**A.** 11%

**Q.** How did the displacement turn out when Cc1ccc(NCC(=O)N/N=C\c2ccc(OC(=O)c3ccccc3)cc2)cc1 was run?
**A.** 7.2%

**Q.** How did the displacement turn out when O=C(CC1CCCCC1)Nc1ccccc1 was run?
**A.** -8.1%

**Q.** CCN(CC)c1ccc(N=Cc2ccccc2[N+](=O)[O-])cc1 was tested. Which displacement did it give?
**A.** -4.1%

**Q.** Which displacement does the source give for Cc1ccc(-c2ccc(C=O)o2)c(Br)c1 here?
**A.** -8.9%

**Q.** How did the displacement turn out when CCOC(=O)c1c(NC(=O)c2cc(OCC)c(OCC)c(OCC)c2)sc(C)c1C was run?
**A.** -6.2%

**Q.** How did the displacement turn out when COc1ccccc1OCCOc1ccc(Br)cc1/C=c1\sc2nc3ccccc3n2c1=O was run?
**A.** 3.4%

**Q.** How did the displacement turn out when CCN(CC)CCCNC(=O)c1cc(Cl)ccc1Cl was run?
**A.** 0.5%

**Q.** For CN(C)S(=O)(=O)c1ccc2c(c1)C(=C(C#N)C#N)c1cc(S(=O)(=O)N(C)C)ccc1-2, which displacement is on record?
**A.** -7%

**Q.** For O=c1/c(=C/c2ccc(O)cc2)sc2nc3cc(Br)cnc3n12, which displacement is on record?
**A.** -0.4%

**Q.** O=C1S/C(=C/c2ccc(-c3ccc([N+](=O)[O-])cc3Cl)o2)C(=O)N1c1ccccc1 was tested. Which displacement did it give?
**A.** 47.4%

**Q.** CCc1ccccc1N(CC(=O)Nc1ccccc1Cl)S(C)(=O)=O was tested. Which displacement did it give?
**A.** -6.2%

**Q.** How did the displacement turn out when CCOc1ccccc1C(=O)Nc1c(Cl)cccc1Cl was run?
**A.** 4.2%

**Q.** How did the displacement turn out when Nn1cnnc1N/N=C/c1cccc(I)c1 was run?
**A.** 5.4%

**Q.** With CCOn1c(=O)c(=O)n(OCC)c2ccccc21 as the compound, how does the displacement read?
**A.** 17.9%

**Q.** For CC12C=CC(O1)C1C(=O)N(c3cccc(C(=O)O)c3)C(=O)C12 (configuration not stated), which displacement is on record?
**A.** -8.4%

**Q.** With COc1ccc2nc(C)c(CCC(C)=O)c(Cl)c2c1 as the compound, how does the displacement read?
**A.** 0.3%

**Q.** O=C1C2C3C=CC(C4CC34)C2C(=O)N1C12CC3CC(CC(C3)C1)C2 (configuration not stated) was tested. Which displacement did it give?
**A.** 1.1%

**Q.** CCN(CC)c1ccc(NC(=O)c2ccc3ccccc3n2)cc1 was tested. Which displacement did it give?
**A.** 1.3%

**Q.** For CCCOc1cccc(C(=O)NCc2ccncc2)c1, which displacement is on record?
**A.** -9.6%

**Q.** With N#CCc1nc(-c2ccc([N+](=O)[O-])cc2)cs1 as the compound, how does the displacement read?
**A.** 3%

**Q.** Cc1sc(NC(=O)C2CC(O)CN2C(=O)OC(C)(C)C)nc1-c1ccccc1 (configuration not stated) was tested. Which displacement did it give?
**A.** -14.9%

**Q.** With Cc1ccc(C)c(NC(=O)CC(C)c2ccccc2)c1 (configuration not stated) as the compound, how does the displacement read?
**A.** 6.5%

**Q.** How did the displacement turn out when CCn1c2ccccc2c2cc(CNc3ccc(C)c(C)c3)ccc21 was run?
**A.** 7.1%

**Q.** COc1ccc(C)cc1NC(=O)COc1ccc(Br)c(C)c1 was tested. Which displacement did it give?
**A.** -8.9%

**Q.** Which displacement does the source give for COc1cccc2cc(-c3nc4ccccc4o3)c(=O)oc12 here?
**A.** 3.9%

**Q.** With O=C(COc1cccc2ccccc12)NNC(=O)c1ccc(Cl)c(Cl)c1 as the compound, how does the displacement read?
**A.** -12.3%

**Q.** Which displacement does the source give for Cc1ccc(-c2[nH]n3c(=O)cc(-c4ccccc4)nc3c2C)cc1 here?
**A.** 15.2%

**Q.** For CC(NC(=O)c1ccc(C(=O)O)cc1C(=O)O)c1ccccc1 (configuration not stated), which displacement is on record?
**A.** 12.8%

**Q.** How did the displacement turn out when CN(C)c1ccc(/C=C2/SC(=S)N(CC(=O)O)C2=O)cc1Br was run?
**A.** -7.4%

**Q.** How did the displacement turn out when Brc1ccc2[nH]c3c(c2c1)CCCC3n1cccc1 (configuration not stated) was run?
**A.** 1.7%

**Q.** For Cc1cc(/C=C2\SC(=O)NC2=O)c(C)n1-c1cccc([N+](=O)[O-])c1, which displacement is on record?
**A.** 11.6%

From PubChem BioAssay AID1240 (Sanford-Burnham Center for Chemical Genomics, 2008)
